# Where “and” joins values, the source holds several entries; their conditions need not be identical. Identical values can stand only once. About 50,000 (12%) of roughly 420,000 compounds were called active. The inconclusive results got no clear call from the source; some entries with a clear call stand among them for comparison. Calls follow the shape of the dose curve; as a rule, active = well fitted inhibition curve with a large enough effect; inconclusive = small, poorly fitted or top-dose-only effect; inactive = flat fitted curve, though single readings scatter. Where the call is inconclusive, the potency comes from a doubtful curve fit.
# Experiment: qHTS for Inhibitors of human tyrosyl-DNA phosphodiesterase 1 (TDP1): qHTS in cells in presence of CPT; also: nearly all actives have a fitted effect of over 55% in size
# Settings: chicken DT40 Tdp1-/-;hTDP1 cells + 20 nM CPT, ATP luminescence, 48 h; activity change, negative = growth inhibition: at 46.2 µM (top of the series) unless noted
# Outline: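 Cell growth measured by CellTiter-Glo luminescence after a minimum 48 h, 37 C compound exposure with 20 nM CPT in Tdp1-knockout DT40 cells stably expressing hTDP1, seeded 400/well; qHTS titration format.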
# % is scaled to controls: 0 for no effect and ±100 for the full control effect; potency is read from the fitted curve at half-maximal effect; tags tell the direction and shape of the fitted curve.
Structure (SMILES),Potency,"activity change, negative = growth inhibition"
Cn1ccc(C(=O)NC(=S)Nc2ccc([N+](=O)[O-])cc2O)n1,inactive,–
CC(=O)Nc1ccc(NC(=O)C2(C)CC2(Cl)Cl)cc1 (stereo not drawn),"inconclusive: 29.1 µM [inhibitor, single point]",–
CCc1c(C)sc(NC(=O)C2CC2)c1C(=O)OC(C)C,"inconclusive: 29.1 µM [inhibitor, single point]",–
Cc1nc2cnc(Oc3cccc(Cl)c3)nc2n(Cc2ccc(F)cc2)c1=O,"inconclusive: 29.1 µM [inhibitor, single point]",–
Cc1ccc(NC(=O)c2ccc(CSc3ncnc4nc[nH]c34)cc2)c(C)c1,active: 23.1 µM,–
CCN(CC)c1ccc(C(=S)N2CCN(c3ccccc3)CC2)cc1,"inconclusive: 25.9 µM [inhibitor, single point]",–
CC(C)(C)n1nnnc1C1c2ccccc2C(=O)N1CCc1c[nH]c2ccccc12 (stereo not drawn),"inconclusive: 20.6 µM [inhibitor, single point]",–
COc1ccc(C(OCC(O)CNCCc2ccc(S(N)(=O)=O)cc2)c2ccc(OC)cc2)cc1 (stereo not drawn),"inconclusive: 23.1 µM [inhibitor, single point]",–
Cn1c(=NC(=O)CCl)sc2ccccc21,active: 2.59 µM,–
COc1cccc2c1OC1(C)CC2NC(=O)N1c1cccc(C(=O)N2CCN(c3ccccn3)CC2)c1 (stereo not drawn),inactive,–
Cc1ccc(Cl)cc1N1CCN(S(=O)(=O)c2cccc(S(=O)(=O)N3CCCC3)c2)CC1,"inconclusive: 13 µM [inhibitor, partial curve, poor fit]",–
NC(=O)c1cnccn1,inactive,–
Cc1ccc(S(=O)(=O)N2CCN(Cc3ccccc3Cl)CC2)cc1,"inconclusive: 29.1 µM [inhibitor, single point]",–
Cc1c(-c2ccc(Cl)cc2)noc1C1CCN(CCc2ccccc2)CC1,"inconclusive: 29.9 µM [inhibitor, partial curve, poor fit] and inconclusive: 29.1 µM [inhibitor, single point]",–
O=S(=O)(c1ccccc1)[C@@]1(c2ccc(Br)cc2)C[C@@H]2ON=C(c3cccc(Br)c3)[C@@H]2C1,"inconclusive: 20.6 µM [inhibitor, single point]",–
O=C(Nc1ccc(N2CCOCC2)cc1)C1CCCCN1S(=O)(=O)c1ccccc1 (stereo not drawn),"inconclusive: 23.1 µM [inhibitor, single point]",–
Cc1cccn2cc(-c3ccc(S(=O)(=O)N4CCOCC4)cc3)nc12,"inconclusive: 18.4 µM [inhibitor, single point]",–
CCN1CCN(c2sc(S(=O)(=O)CC)nc2S(=O)(=O)c2ccc(C)cc2)CC1,inactive,–
Cc1ccc(Cn2c(C(=O)O)c(CNCc3ccc(C)o3)c3ccc(C)cc32)cc1,"inconclusive: 29.1 µM [inhibitor, single point]",–
Cc1csc(NC(C)c2nc3cc(Cl)c(N4CCCCC4)cc3n2CCOCCO)n1 (stereo not drawn),"inconclusive: 29.1 µM [inhibitor, single point]",–
O=C(NCCc1ccccc1)c1ccc2c(c1)N(Cc1ccc(F)cc1)C(=O)CS2,"inconclusive: 29.1 µM [inhibitor, single point]",–
O=C(NCCC1=CCCCC1)c1ccc2c(c1)sc1nc(-c3ccc(F)cc3)cn12,inactive,–
COc1ccc(S(=O)(=O)N2CCCCC2)cc1NC(=O)c1ccc2c(c1)OCO2,"inconclusive: 32.6 µM [inhibitor, single point]",–
Cc1ccc(-c2csc(NC(=O)CSc3nc(C)cc(=O)[nH]3)n2)cc1,active: 18.4 µM,–
O=C(COc1ccccc1)NCc1n[nH]c(=S)n1-c1ccccc1,inactive,–

Structure (SMILES),Potency,"activity change, negative = growth inhibition"
Cc1ccc2c(c1)/C(=C/c1ccccc1F)C(=O)N2,–,inconclusive: -32.9% [inhibitor]
Cc1nn(C)c(C)c1N=Cc1c(O)ccc2ccccc12,"inconclusive: 16.4 µM [inhibitor, single point]",–
CC(=O)c1ccc(N2CCN(C(=O)c3ccco3)CC2)c(F)c1,"inconclusive: 29.1 µM [inhibitor, single point]",–
Cc1c(Cl)cccc1Nc1nc(N)nc(CN2CCCCCC2)n1,–,inconclusive: -33.6% [inhibitor]
COc1ccccc1CNC(=O)C1(C)CCN1C(=O)Cc1ccc(-c2ccccc2)cc1 (stereo not drawn),active: 16.4 µM,–
CC(=O)N1CC=C2C(C#N)=C(N)C(C#N)(C#N)[C@H](c3ccoc3)[C@H]2C1,inactive,–
COCCNC(=O)/C(=C/c1ccccc1Cl)c1ccccc1,active: 29.1 µM,–
CCN(CC)c1ccc(NC(=O)CN2CCN(CC(=O)Nc3ccc(Cl)cc3)CC2)cc1,active: 23.1 µM,–
COc1ccc(-c2cc(C(=O)NN3CCOCC3)c3ccccc3n2)cc1OC,"inconclusive: 8.2 µM [inhibitor, partial curve, poor fit]",–
O=c1oc(-c2ccc([N+](=O)[O-])cc2)nc2ccccc12,"inconclusive: 10.3 µM [inhibitor, partial curve, poor fit]",–
CN(C)S(=O)(=O)c1cccc(NC(=O)COc2ccc(S(=O)(=O)N3CCOCC3)cc2Cl)c1,inactive,–
Nc1nc(N)c(N=O)c(OCC2CCCCC2)n1,active: 11.6 µM,–
Cc1cccc(-n2ncc3c(NCc4ccco4)ncnc32)c1,active: 13 µM,–
Cc1cc(C)c(OCC(=O)N(C)CC(=O)Nc2ccc(N3CCOCC3)cc2)c(C)c1,"inconclusive: 29.1 µM [inhibitor, single point]",–
COC1=C(OC)C(=O)C(Sc2ccc3ccccc3c2)=CC1=O,active: 1.3 µM,–
O=C(CCOc1ccccc1)N1CCN(c2ccc(O)cc2)CC1,"inconclusive: 18.4 µM [inhibitor, single point]",–
COc1ccccc1N(C)S(=O)(=O)c1ccc(Cl)c(C(=O)NCc2cccnc2)c1,"inconclusive: 23.1 µM [inhibitor, single point]",–
CCOc1c(C)cnc2c1c(=O)n(Cc1cccc(Cl)c1)c(=O)n2C,–,inconclusive: -37% [inhibitor]
COc1ccc(NC(=O)c2ccc(-c3ccc([N+](=O)[O-])cc3)o2)cc1OC,active: 13 µM,–
COc1cccc(CC(=O)OCC(=O)NCCc2ccc(F)cc2)c1,inactive,–
O=c1cc(-c2ccc3c(c2)OCCO3)oc2ccc(Cl)cc12,"inconclusive: 23.1 µM [inhibitor, partial curve]",–
CC(NC(=O)c1cc2c(=O)n3ccccc3nc2n(C(C)C)c1=N)c1ccccc1 (stereo not drawn),"inconclusive: 20.6 µM [inhibitor, single point]",–
O=C(NC(=S)Nc1ccc(CN2CCOCC2)cc1)c1ccc2c(c1)OCCO2,"inconclusive: 18.4 µM [inhibitor, single point]",–
c1coc(CNc2c3c(nc4ccccc24)CCC3)c1,active: 16.4 µM,–
O=C(CCCN1C(=O)/C(=C/c2cccs2)SC1=S)Nc1cccc(C(=O)O)c1,inactive,–

Structure (SMILES),Potency,"activity change, negative = growth inhibition"
Cc1cc(C)cc(N2Cc3ccccc3C2)c1,inactive,–
CC1CCCN(CC(O)CN2CCN(CC(O)CN3CCCC(C)C3)C(C)C2)C1 (stereo not drawn),inactive,–
CCCOC(=O)C1C2C=CC(C2)C1C(=O)OCC(=O)c1ccccc1 (stereo not drawn),"inconclusive: 29.1 µM [inhibitor, single point]",–
CCCS(=O)(=O)Nc1ccc(Nc2c3ccccc3nc3ccccc23)c(OC)c1,active: 0.164 µM,–
CC(C)(C)NCCOCCOc1ccccc1-c1ccccc1,active: 11.6 µM,–
COc1cc(NC(=O)CN2C(=O)CCc3cc(Br)ccc32)cc(OC)c1OC,"inconclusive: 11.6 µM [inhibitor, partial curve]",–
O=S(=O)(Nc1ccc2c3c(cccc13)CC2)c1ccccc1,"inconclusive: 25.9 µM [inhibitor, single point]",–
Cc1ccc(CCNS(=O)(=O)c2ccc3c(c2)C(C(C)C)C(=O)N3)cc1 (stereo not drawn),"inconclusive: 16.4 µM [inhibitor, single point]",–
Cc1ccc(S(=O)(=O)N(C)C)cc1NC(=O)COC(=O)/C=C/c1cccs1,inactive,–
O=C(NCc1ccccc1)NCC12CC3CC(CC(C3)C1)C2,"inconclusive: 20.6 µM [inhibitor, single point]",–
Cc1c(Cl)cccc1NC(=S)N=Nc1c(O)n(CN2CCOCC2)c2ccccc12,active: 5.8 µM,–
CCC(C)Sc1cc(-c2nc3cc(C)ccn3c2NC2CCCCC2)ccc1OC (stereo not drawn),active: 13 µM and active: 20.6 µM,–
COc1cccc(Cn2c(=O)n(CC3CCC(C(=O)NC(C)C)CC3)c(=O)c3sccc32)c1 (stereo not drawn),inactive,–
Cc1ccc(C2=NN(CC(=O)NCCc3ccccc3)C(=O)CC2)cc1,"inconclusive: 16.4 µM [inhibitor, single point]",–
CNC(=O)N(O)C1N(/N=C/c2ccccc2F)C(=S)SC1(C)C (stereo not drawn),inactive,–
CCCOC1CCCN(C(=O)CCc2nnc(-c3ccc4c(c3)OCO4)o2)C1 (stereo not drawn),inactive,–
CC1=CC(=O)C(C(C)C)=C/C1=N/OS(=O)(=O)c1ccccc1,active: 0.58 µM,–
O=[N+]([O-])c1cc(/C=N/Nc2nc(N3CCCCC3)nc(N3CCCCC3)n2)ccc1O,inactive,–
Cc1cccc2cc(CN(CC3CCCO3)C(=O)c3ccco3)c(=O)[nH]c12 (stereo not drawn),inactive,–
CC(C)C(=O)Nc1cccc(C(=O)Nc2ccc(S(=O)(=O)N3CCOCC3)cc2)c1,"inconclusive: 29.1 µM [inhibitor, single point]",–
CCCCc1ccc(NC(=S)NCc2ccc(OC)cc2)cc1,"inconclusive: 25.9 µM [inhibitor, partial curve]",–
O=C(c1cccc(F)c1)N1CCCC(C(=O)N2CCCCC2)C1 (stereo not drawn),inactive,–
Cc1cc(C)c2c(c1)c1nnc(SCCN3CCCCC3)nc1n2C,"inconclusive: 29.1 µM [inhibitor, single point]",–

# Source: PubChem BioAssay AID686979 (National Center for Advancing Translational Sciences (NCATS), 2013)
